Source: patent US20190290692A1 (MINERVA BIOTECHNOLOGIES, published 2019)

Key:
Assay in all cases: ELISA, peptide immobilised on surface (FIG. 20)
[1] = molecular target: T1, PSMGFR minus 10 amino acids from the C-terminus
T1 construct: also called C-10; C-10 PSMGFR
T1 peptide: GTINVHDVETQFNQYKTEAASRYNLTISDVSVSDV
Text: (§1) The hu MN-E6 scFv-Fc bound to the PSMGFR peptide and to the PSMGFR N-10 peptide but not to the PSMGFR C-10 peptide. The parent MN-E6 antibody and the humanized MN-E6 require the C-terminal 10 amino acids of PSMGFR for binding.

[2] = molecular target: T2, PSMGFR peptide (Primary Sequence of the MUC1 Growth Factor Receptor)
T2 construct: Immobilised on ELISA plates or attached to 1 um or 4.5 um beads; also called MUC1* peptide; MUC1* PSMGFR peptide
T2 peptide: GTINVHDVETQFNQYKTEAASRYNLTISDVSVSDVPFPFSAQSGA
Text: as §1

[3] = molecular target: T3, PSMGFR minus 10 amino acids from the N-terminus
T3 construct: also called N-10; N-10 PSMGFR
T3 peptide: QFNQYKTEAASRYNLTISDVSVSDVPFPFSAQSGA
Text: as §1

B1: humanized MN-E6 scFv-Fc (wild type Fc) (Fc fusion)
chain: DAAQPAEVQLVESGGGLVKPGGSLRLSCAASGFTFSRYGMSWVRQAPGKRLEWVSTISGGGTYIYYPDSVKGRFTISRDNAKNTLYLQMNSLRAEDTAVYYCTRDNYGRNYDYGMDYWGQGTLVTVSSGGGGSGGGGSGGGGSEIVLTQSPATLSLSPGERATLTCSATSSVSYIHWYQQRPGQSPRLLIYSTSNLASGIPARFSGSGSGSDYTLTISSLEPEDFAVYYCQQRSSSPFTFGSGTKVEIK[human IgG1 Fc left out]
notes: Biotinylated for some tissue stainings; also called hu MN-E6 scFv-Fc; hu MN-E6 scFv-Fc-wt
Does B1 bind [1]?
Result: no binding

Does B1 bind [2]?
Result: binds

Does B1 bind [3]?
Result: binds
